# According to a collection of fitness landscapes (doi:10.1038/s41467-024-54723-y):
# The full ranking holds about 18,000 sequences; the median of “TetR repression strength (sort-seq, GFP reporter)” is about 0.23, and the highest 2% start at about 0.68. Some of the results follow.
# Target: TetR (class B, Tn10) (UniProt P04483)
# Assay: TetR repression strength (sort-seq, GFP reporter) (relative to tetO2 = 1); higher = stronger repression
# Conditions: E. coli
# Procedure, shortened: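 Repression strength is the top bin index plus one minus the read-weighted mean bin, relative to the unaltered operator's value. A low-copy library in E. coli SIG10-MAX randomized eight operator positions between a constitutive promoter and sfGFP, with TetR expressed constitutively; cells grew 5 h at 37 °C in LB with 50 µg/mL chloramphenicol and 10^6 were FACS-sorted into 13 bins that were each Illumina-sequenced. Three independent transformations were averaged, keeping only members with ≥30 reads in all replicates and CV ≤0.5.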
# Chain of UniProt P04483 (P04483 whole entry): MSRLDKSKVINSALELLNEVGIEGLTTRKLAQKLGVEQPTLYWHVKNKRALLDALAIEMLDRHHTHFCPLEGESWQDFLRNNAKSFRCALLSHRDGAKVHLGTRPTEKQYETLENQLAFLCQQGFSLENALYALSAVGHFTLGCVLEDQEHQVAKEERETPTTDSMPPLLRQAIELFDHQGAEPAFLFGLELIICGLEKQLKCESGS
row,Sequence,TetR repression strength
1,TCCCATCTAGTGGTGGAGA,0.22
2,TCCCAGTTAGTGCGCGAGA,0.366
3,TCCCCGCAAGTGCTAGAGA,0.224
4,TCCCTTAAAGTTATAGAGA,0.137
5,TCCCACTGAGTGTGGGAGA,0.189
6,TCCCTAGTAGTGCTTGAGA,0.594
7,TCCCCAGCAGTTGGAGAGA,0.256
8,TCCCGAGCAGTAGGAGAGA,0.309
9,TCCCCTGTAGTCGGGGAGA,0.858
10,TCCCGATCAGTGCTAGAGA,0.657
11,TCCCTGGGAGTCGCTGAGA,0.413
12,TCCCGAGAAGTTTCAGAGA,0.0247
13,TCCCACCGAGTGGTGGAGA,0.203
14,TCCCGAGAAGTCGCAGAGA,0
15,TCCCTTCGAGTGTTGGAGA,0.298
16,TCCCCAGGAGTTGGTGAGA,0.0803
17,TCCCGCTAAGTATTGGAGA,0.138
18,TCCCAGTCAGTTAGTGAGA,0.411
19,TCCCAAGGAGTTCGTGAGA,0.104
20,TCCCGGCTAGTCGAGGAGA,0.232
21,TCCCCTTAAGTTAATGAGA,0.515
22,TCCCGGGTAGTTGTTGAGA,0.204
23,TCCCGAAGAGTGGTGGAGA,0.219
24,TCCCGGTCAGTGTGCGAGA,0.412
25,TCCCTGTTAGTGGCAGAGA,0.1
26,TCCCGTCTAGTGAAAGAGA,0.347

row,Sequence,TetR repression strength
1,TCCCAGGAAGTGGGTGAGA,0.229
2,TCCCCGCAAGTCCTCGAGA,0.408
3,TCCCACAGAGTACGCGAGA,0.116
4,TCCCCGCTAGTGATCGAGA,0.445
5,TCCCGCCGAGTGGACGAGA,0.514
6,TCCCTCCGAGTAAAGGAGA,0.288
7,TCCCGGAAAGTCGTGGAGA,0.244
8,TCCCAGACAGTGCGAGAGA,0.219
9,TCCCCGGAAGTGGCTGAGA,0.257
10,TCCCCACTAGTGCGAGAGA,0.00691
11,TCCCACTCAGTGACGGAGA,0.269
12,TCCCCATTAGTGGGAGAGA,0.14
13,TCCCTTAAAGTGTGAGAGA,0.104
14,TCCCGTAGAGTCTTCGAGA,0.289
15,TCCCAGGAAGTGAGCGAGA,0.21
16,TCCCGGGTAGTAGGTGAGA,0.155
17,TCCCTACAAGTCTACGAGA,0.269
18,TCCCAACGAGTGGCCGAGA,0.308
19,TCCCGTGGAGTAGCTGAGA,0.497
20,TCCCAATAAGTCATCGAGA,0.4
21,TCCCCGAGAGTGGGTGAGA,0.0977
22,TCCCCAGGAGTCAAGGAGA,0.177
23,TCCCGCGGAGTAAAGGAGA,0.207
24,TCCCATACAGTTGAGGAGA,0.0487
25,TCCCCAGTAGTCGATGAGA,0.222
26,TCCCGGCAAGTTGAGGAGA,0.0553

row,Sequence,TetR repression strength
1,TCCCCATAAGTCTTGGAGA,0.242
2,TCCCAAAGAGTCGCAGAGA,0.308
3,TCCCTTGGAGTGCTGGAGA,0.415
4,TCCCGCACAGTAGGGGAGA,0.126
5,TCCCAGTCAGTGGTGGAGA,0.305
6,TCCCTGGCAGTGGTGGAGA,0.121
7,TCCCGTACAGTGGCTGAGA,0.446
8,TCCCTGAGAGTGATTGAGA,0.239
9,TCCCCTAAAGTTGATGAGA,0.372
10,TCCCGACCAGTCGATGAGA,0.171
11,TCCCATTCAGTGATAGAGA,0.707
12,TCCCACACAGTAGGGGAGA,0.218
13,TCCCTGATAGTTCACGAGA,0.294
14,TCCCTAGTAGTTTATGAGA,0.215
15,TCCCTTCTAGTGGCGGAGA,0.39
16,TCCCACGAAGTACTAGAGA,0.188
17,TCCCCTTCAGTGTTAGAGA,0.458
18,TCCCAGGAAGTGTCAGAGA,0.0945
19,TCCCACGTAGTTAGGGAGA,0.19
20,TCCCACATAGTATGTGAGA,1.23
21,TCCCCTGGAGTCGGTGAGA,0.364
22,TCCCGCATAGTGAAAGAGA,0.398
23,TCCCCGAAAGTAAAAGAGA,0.272
24,TCCCGTTGAGTGGCAGAGA,0.291
25,TCCCAACCAGTGATTGAGA,0.47
26,TCCCTTCCAGTAACTGAGA,0.401

row,Sequence,TetR repression strength
1,TCCCCGCAAGTCCATGAGA,0.354
2,TCCCGGGCAGTACAGGAGA,0.192
3,TCCCGGCGAGTAAGCGAGA,0.263
4,TCCCAGGTAGTTGCTGAGA,0.167
5,TCCCTAACAGTGAGTGAGA,0.514
6,TCCCTAAGAGTTGGGGAGA,0.243
7,TCCCAACGAGTGCTGGAGA,0.237
8,TCCCACGGAGTTGTAGAGA,0.148
9,TCCCCAAAAGTTCGAGAGA,0.117
10,TCCCGATCAGTCTTAGAGA,0.455
11,TCCCGGACAGTCAGAGAGA,0.208
12,TCCCTATGAGTGCGTGAGA,0.227
13,TCCCTGTGAGTTCTTGAGA,0.121
14,TCCCCATTAGTAGTCGAGA,1.01
15,TCCCCAATAGTGTTAGAGA,0.318
16,TCCCGTAGAGTGGTAGAGA,0.332
17,TCCCAAATAGTGGGAGAGA,0.214
18,TCCCGTCGAGTGAAAGAGA,0.69
19,TCCCGTGAAGTAACGGAGA,0.112
20,TCCCTTCCAGTACTGGAGA,0.388
21,TCCCACTAAGTTTTTGAGA,0.525
22,TCCCTGTCAGTTCCGGAGA,0.256
23,TCCCCAATAGTGGGGGAGA,0.223
24,TCCCATGCAGTCCATGAGA,0.109
25,TCCCGAGTAGTCGAGGAGA,0.159
26,TCCCCTGAAGTAGATGAGA,0.263

row,Sequence,TetR repression strength
1,TCCCGGACAGTCATCGAGA,0.216
2,TCCCCTAAAGTGTGGGAGA,0.113
3,TCCCGATTAGTCGTGGAGA,0.415
4,TCCCGGACAGTCCAAGAGA,0.377
5,TCCCTATCAGTAGGCGAGA,0.414
6,TCCCTAATAGTTGCTGAGA,0.214
7,TCCCGAAAAGTGCAGGAGA,0.26
8,TCCCTAATAGTGATAGAGA,0.614
9,TCCCGATTAGTTAGCGAGA,0.0992
10,TCCCATGCAGTGCAGGAGA,0.229
11,TCCCGCGAAGTCCCTGAGA,0.437
12,TCCCTCCAAGTGCGTGAGA,0.0321
13,TCCCGTCAAGTTGATGAGA,0.0499
14,TCCCCGTTAGTTTCAGAGA,0.2
15,TCCCAAGGAGTTTTAGAGA,0.318
16,TCCCTAGTAGTGTTGGAGA,0.407
17,TCCCGAGGAGTGACGGAGA,0.319
18,TCCCGCGAAGTCCTCGAGA,0.245
19,TCCCCTGGAGTTTGAGAGA,0.138
20,TCCCGGCAAGTGAGCGAGA,0.118
21,TCCCTGTGAGTTGGTGAGA,0.656
22,TCCCGTACAGTCCACGAGA,0.3
23,TCCCCAGGAGTCGTTGAGA,0.279
24,TCCCGGGTAGTGGAAGAGA,0.331
25,TCCCCTGAAGTTTACGAGA,0.2
26,TCCCTCGGAGTCTGCGAGA,0.522
